Experimental data published in patent US10780047B2, “Method of providing birth control” (The Population Council, Inc., priority 2019, dated 2020).

Assay: PK study in females with BMI <25 and BMI >25 kg/m^2
Format: in vivo, human
Settings: 18 females BMI <25 vs 21 females BMI >25 kg/m^2; vaginal system

Row | Structure (SMILES) | decrease in the systemic exposure (AUC6-21day) between the two BMI groups
1 | C#C[C@]1(O)CC[C@H]2[C@@H]3CCc4cc(O)ccc4[C@H]3CC[C@@]21C [EE, 19-nor-17α-pregna-1,3,5(10)-trien-20-yne-3,17-diol] | ≤ 33%
2 | C=C1C[C@H]2[C@@H]3CCC4=CC(=O)CC[C@@H]4[C@H]3CC[C@]2(C)[C@@]1(OC(C)=O)C(C)=O [SA, 16-methylene-17α-acetoxy-19-nor-pregn-4-ene-3,20-dione] | up to 16%
